# According to PubChem BioAssay AID686979 (National Center for Advancing Translational Sciences (NCATS), 2013):
# Out of some 420,000 compounds screened, about 50,000 (12%) were called active. This list was built around the results that the source calls inconclusive (neither active nor inactive); the mix of calls is not that of the screen. Calls come from the whole dose curve; as a rule, active = well fitted inhibition curve with a large enough effect; inconclusive = small, poorly fitted or top-dose-only effect; inactive = flat fitted curve, though single readings scatter. Potencies of inconclusive entries are left out as doubtful fits.
# Assay: qHTS for Inhibitors of human tyrosyl-DNA phosphodiesterase 1 (TDP1): qHTS in cells in presence of CPT; note: nearly all actives have a fitted effect of over 55% in size
# Conditions: chicken DT40 Tdp1-/-;hTDP1 cells + 20 nM CPT, ATP luminescence, 48 h; activity change, negative = growth inhibition: at 46.2 µM (top of the series)
# Method in brief: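 Cell growth measured by CellTiter-Glo luminescence after a minimum 48 h, 37 C compound exposure with 20 nM CPT in Tdp1-knockout DT40 cells stably expressing hTDP1, seeded 400/well; qHTS titration format.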
# % is set by controls: 0 for no effect and ±100 for the full control effect; potency is the fitted concentration of half-maximal effect; tags give direction and shape of the fitted curve.
Compound,Potency,"activity change, negative = growth inhibition"
Cc1ccc(NC(=O)Cc2ccc(F)cc2)cc1,"inconclusive [inhibitor, single point]",
O=C(CN1CCN(c2ccccc2O)CC1)Nc1ccc(S(=O)(=O)N2CCCCCC2)cc1,"inconclusive [inhibitor, single point]",
CCCCc1ccc(S(=O)(=O)NCCCN2CCCC2=O)cc1,"inconclusive [inhibitor, single point]",
O=C(COc1ccc2c(c1)OCO2)NC12CC3CC(CC(C3)C1)C2,"inconclusive [inhibitor, single point]",
O=C(NC(=S)NNS(=O)(=O)c1ccc(Cl)cc1)c1cccnc1,inactive,
COc1ccc(C(=O)N2CCCC(Nc3ccc(C)c(C)c3)C2)cc1F (stereo unspecified),"inconclusive [inhibitor, partial curve]",
O=c1cc(N2CCCC2)c(-c2ccccc2)n[nH]1,inactive,
Cn1c(=O)oc2cc(S(=O)(=O)N3CCCC(C(=O)NC4CCCc5ccccc54)C3)ccc21 (stereo unspecified),"inconclusive [inhibitor, single point]",
CCCc1nc2sc3ccccc3c(=O)c2c(=O)n1Cc1ccco1,"inconclusive [inhibitor, single point]",
CCCCN1C2CCCC1CC(NC(=O)c1cccc(Cl)c1)C2 (stereo unspecified),"inconclusive [inhibitor, single point]",
CC(C)(C)c1ccc(C(=O)NCC(=O)N2CCCC2)cc1,inactive,
CC(C)CN(C(=O)CSc1nnnn1-c1ccccc1)c1c(N)n(CC(C)C)c(=O)[nH]c1=O,inactive,
CNc1ccccc1C(C)(C)c1cc(-c2cc(C)cc(C)c2)no1,"inconclusive [inhibitor, single point]",
COc1ccc(CCNC(=O)c2csc3c2CCCC3)cc1OC,"inconclusive [inhibitor, partial curve]",
CCC(C)N1C(=O)c2ccccc2C1C(=O)NC1CCCCCC1 (stereo unspecified),inactive,
CCOc1ccc(N(CC)S(=O)(=O)N2CCCC(C(=O)Nc3ccc(C(C)=O)cc3)C2)cc1 (stereo unspecified),active: 20.6 µM,
CC(=O)n1cc(/C=N/NC(N)=S)c2ccccc21,"inconclusive [inhibitor, single point]",
O=C(CN1CCC(NC(=O)Nc2ccccc2)CC1)Nc1ccc([N+](=O)[O-])cc1,"inconclusive [inhibitor, partial curve, poor fit]",
c1nnc(NCNc2nncs2)s1,"inconclusive [inhibitor, single point]",
Cc1cc(O)ccc1-c1ccc2nncn2c1,active: 16.4 µM,
Cc1ccc(C(=O)NC2CCCN(c3ccc(C(F)(F)F)cn3)C2)cn1 (stereo unspecified),"inconclusive [inhibitor, single point]",
COc1ccc(S(=O)(=O)CCC(=O)NCCc2ccc(Cl)cc2)cc1,inactive,
CCOC(=O)Cc1csc(NC(=O)Cn2cnc3c2c(=O)n(C)c(=O)n3C)n1,active: 16.4 µM,

Compound,Potency,"activity change, negative = growth inhibition"
COc1ccc(-c2nc(CS(=O)CC(=O)NCc3ccccn3)c(C)o2)cc1 (stereo unspecified),active: 18.4 µM,
NC1=C(Cl)C(=O)c2ccc(S(N)(=O)=O)cc2C1=O,active: 0.411 µM,
CCc1ccc(-n2c(=O)c3c4c(sc3n(CC(=O)N3CCCCC3CC)c2=O)CCC4)cc1 (stereo unspecified),"inconclusive [inhibitor, single point]",
COC(=O)c1ccc(CN2CCC(Oc3ccc(C(=O)N4CCCCC4)cc3)CC2)cc1,"inconclusive [inhibitor, single point]",
Cc1ccc(CNC(=O)c2ccc(NC(=O)N3CCSc4ncccc43)cc2)cc1,"inconclusive [inhibitor, single point]",
CO[C@H]1[C@H](NC(=O)c2ccsc2)c2ccccc2C12CCN(Cc1cc(Cl)ccc1O)CC2,,inactive: -5.36% [at 9.04 µM]
O=c1cc(NCc2ccccc2)nc2n1CCCS2,"inconclusive [inhibitor, single point]",
c1ccc(-c2nnc(CN3CCCc4ccccc43)o2)cc1,"inconclusive [inhibitor, single point]",
Cn1cc(C(=O)N/N=C/C2=C(N3CCOCC3)C(=C/c3ccc([N+](=O)[O-])cc3)/CC2)ccc1=O,"inconclusive [inhibitor, partial curve]",
O=C(Nc1ccncc1)c1ccc(NS(=O)(=O)c2ccc3[nH]c(=O)[nH]c3c2)cc1,inactive,
O=C(Sc1ccccc1)c1cccc(Cn2cc(C(F)(F)F)ccc2=O)c1,active: 18.4 µM,
COc1ccc(CNc2nc(SCc3cc(=O)n4cc(Cl)ccc4n3)nc3ccccc23)cc1,active: 13 µM,
O=C(NC1CC2CCC(C1)N2Cc1nnnn1Cc1ccco1)NC12CC3CC(CC(C3)C1)C2 (stereo unspecified),active: 20.6 µM,
CCOC(=O)C1(Cc2cccc(OC)c2)CCCN(CCO)C1 (stereo unspecified),inactive,
CCCc1nc2oc3c(NCC(C)O)ncnc3c2c2c1CCCC2 (stereo unspecified),"inconclusive [inhibitor, single point]",
COC(=O)CNC(=O)c1cc(OC)cc(OC)c1,inactive,
Cn1c(=O)c2[nH]c(Cc3cccc4ccccc34)nc2n(C)c1=O,"inconclusive [inhibitor, single point]",
COc1ccccc1CCN=C(N)NS(=O)(=O)c1ccc(F)cc1,"inconclusive [inhibitor, single point]",
Cc1c(CCC(=O)NCCc2ccc(Cl)cc2)c(=O)oc2c(C)c(O)ccc12,"inconclusive [inhibitor, single point]",
Cc1ccc(CNC(=O)C2CCCN(c3nc(C)cc(C)n3)C2)cc1 (stereo unspecified),inactive,
COc1ccc(NC(=O)c2ccc(C)cc2Cl)c([N+](=O)[O-])c1,inactive,
CCOc1ccccc1NC(=O)c1nc(SC(C)C)ncc1Cl,"inconclusive [inhibitor, single point]",
O=C(Nc1ccc([N+](=O)[O-])cc1)Nc1ccc2c(c1)OCCO2,"inconclusive [inhibitor, single point]",
